From PubChem BioAssay AID651820 (National Center for Advancing Translational Sciences (NCATS), 2012)
Among all 340,000 compounds or so, about 12,000 (3.5%) were called active. The shares of active, inactive and inconclusive entries below differ from those in the screen. Calls come from the whole dose curve; as a rule, active = well fitted inhibition curve with a large enough effect; inconclusive = small, poorly fitted or top-dose-only effect, or another doubt; inactive = no such curve, though single readings can be large or run the other way. No potency is given beside an inconclusive call; the fits are too rough.

Test: qHTS Assay for Inhibitors of Hepatitis C Virus (HCV)
Conditions: Huh7.5.1 HCVcc-Cre (HCVcc is cell-culture hepatitis C virus) infection, luciferase reporter, 44 h; series mostly up to 41.8 µM
How it was run: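 Compounds are dispensed onto cells plated 4 h earlier at 1,000 per well, with HCVcc-Cre virus (about 0.5 moi) added next. Following 44 h of culture, luminescent signal is measured for 15 sec after 15 min with substrate at room temperature.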
Potency is the fitted concentration of half-maximal effect; tags give direction and shape of the fitted curve.

Row | SMILES | Potency
1 | CC1CCCC(C)N1CCCNC(=O)c1ccc2nc(N3CCOCC3)sc2c1 (configuration not stated) | inactive
2 | O=S(=O)(c1ccc2c(c1)OCCO2)N1CCN(c2nc3ccccc3s2)CC1 | inactive
3 | CC(C)OCC(O)CN1CCC(Cc2ccccc2)CC1 (configuration not stated) | inactive
4 | CSc1ccc(N2CCN(CCCNC(=O)Nc3ccccc3F)CC2)cc1 | inconclusive [inhibitor, full curve, poor fit]
5 | CCOc1ccccc1NC1=CC(=O)CC(c2ccccc2)C1 (configuration not stated) | inconclusive [inhibitor, single point]
6 | Clc1ccc(OCCCCN2CCCCC2)cc1 | inconclusive [inhibitor, partial curve]
7 | Oc1ccccc1/C=N/NC(=S)NC1CC2CC1C1C=CCC21 (configuration not stated) | inconclusive [inhibitor, single point]
8 | CC(=O)O/N=C/c1c(N2CCOCC2)n(C)c2ccccc12 | inconclusive [inhibitor, single point]
9 | O=C(c1ccccc1-c1nc(-c2ccccc2)no1)N1CCOCC1 | inconclusive [inhibitor, partial curve, poor fit]
10 | Cc1cccc(N2CCN(C(=O)CCc3nc4ccccc4[nH]3)CC2C)c1 (configuration not stated) | inconclusive [inhibitor, single point]
11 | N#CC1=C(N)Oc2cc(O)ccc2C1c1cccnc1 (configuration not stated) | inactive
12 | CC(O)CNCCCOc1ccc(Cl)cc1C(C)(C)C (configuration not stated) | active: 11.2 µM
13 | CCOc1cc(-c2cc(-c3ccc(C)o3)nc(N)c2C#N)ccc1O | inconclusive [inhibitor, single point]
14 | O=S(Cc1ccc(Br)cc1)Cc1nnc(SCc2ccc(Cl)cc2)n1-c1ccccc1 (configuration not stated) | active: 6.31 µM
15 | CCOc1ccc(NC(=O)/C(C#N)=C\c2ccc(N3CCCC3)c(C)c2)cc1 | inconclusive [inhibitor, partial curve]
16 | COc1ccc(NC(=O)COc2ccccc2C(=O)NCC(c2ccccc2)N(C)C)cc1Cl (configuration not stated) | inconclusive [inhibitor, single point]
17 | CC(=O)c1c(C)[nH]c(C(=O)OCC(=O)c2c[nH]c3ccccc23)c1C | inconclusive [inhibitor, full curve]
18 | Cc1ccc(S(=O)(=O)N2CCN(C(=O)c3ccccc3Cc3ccccc3)CC2)c(C)c1 | inactive
19 | COC(=O)c1ccc(C(=O)Nc2ccc(F)cc2)cc1 | active: 7.08 µM
20 | CCCN1C(=O)c2ccccc2NC1c1ccc(OC)cc1O (configuration not stated) | inactive
21 | COc1ccc(NC(=O)CC2C(=O)N(c3ccc(OC)cc3)C(=O)N2Cc2ccc(OC)c(OC)c2)cc1 (configuration not stated) | inactive
22 | CCOC(=O)CSc1nc2ccccc2c(=O)n1CC1CCCO1 (configuration not stated) | active: 8.91 µM
23 | COC(=O)Cc1ccc(NC(=O)c2ccc(NC(=O)c3ccco3)cc2)cc1 | inconclusive [inhibitor, full curve, poor fit]
24 | Cc1ncc(CO)c(/C=N/NC(=S)Nc2ccc(Cl)c(Cl)c2)c1O | active: 14.1 µM

Row | SMILES | Potency
25 | O=C(Nc1ccccc1Cl)C1CCCN(c2ncnc3c2nc2n3CCCCC2)C1 (configuration not stated) | inconclusive [inhibitor, partial curve]
26 | CCCc1cc(=O)oc2cc(C)cc(OCC(=O)NCCCN3CCOCC3)c12 | inactive
27 | O=C(CSc1nc2ccccc2c(=O)[nH]1)Nc1ccc(N2CCOCC2)c(Cl)c1 | inconclusive [inhibitor, single point]
28 | CC(=O)Nc1cc[n+](C(C)C(=O)c2ccc(Cl)cc2)cc1 (configuration not stated) | inconclusive [inhibitor, partial curve]
29 | COc1cc(C(=S)N2CCOCC2)cc(Br)c1OS(=O)(=O)c1ccccc1 | inactive
30 | CCOC(=O)c1nc(NCc2ccccc2)sc1C | inconclusive [inhibitor, single point]
31 | Cc1ccc(S(=O)(=O)Nc2ccc(Br)cc2/C=N/n2cnnc2)cc1 | inactive
32 | CCOC(=O)c1cc(-c2ccc(OC)cc2F)nc2c1c(C)nn2CCC#N | inconclusive [inhibitor, partial curve]
33 | O=C(CN1CCN(CC(=O)Nc2ccccc2Cl)CC1)NCC1(N2CCOCC2)CCCCC1 | inconclusive [inhibitor, partial curve]
34 | CC(=O)Nc1cccc(OCCCOc2ccc([N+](=O)[O-])cc2)c1 | inconclusive [inhibitor, single point]
35 | Cc1cccc(OCC(=O)Nc2ccc3c(c2)OCCO3)c1 | inconclusive [inhibitor, single point]
36 | Cc1nc(N2CCCCC2)c2c(C)c(C(=O)Nc3ccc4c(c3)OCCO4)sc2n1 | inconclusive [inhibitor, full curve, poor fit]
37 | N=C(N)SCc1ccc(Cl)cc1Cl | active: 11.2 µM
38 | COc1ccc(C2Nc3ccccc3C(=O)N2Cc2ccccc2)cc1CSc1ccccn1 (configuration not stated) | inactive
39 | CC1=NOC(=O)/C1=C\c1ccc(-c2cccc(Cl)c2)o1 | inconclusive [inhibitor, single point]
40 | O=C(Nc1cc(S(=O)(=O)Nc2ccc(Cl)cc2)ccc1N1CCCCC1)c1ccc(F)cc1 | active: 7.08 µM
41 | COc1ccc2nc(N(CCN(C)C)C(=O)c3ccc4ccccc4c3)sc2c1 | inactive
42 | CCOC(=O)c1sc(NC(=O)c2ccco2)nc1-c1ccccc1 | inconclusive [inhibitor, partial curve]
43 | COCCN(C(=O)c1ccco1)c1nnc(-c2ccc(OC)c(OC)c2)s1 | inactive
44 | CCc1ccc(NC(=O)C2(c3ccccc3)CC2(Cl)Cl)cc1 (configuration not stated) | inconclusive [inhibitor, partial curve]
45 | CCOC(=O)N1CCN(C(=O)C2CCN(Cc3cccc(OCc4ccccc4)c3)CC2)CC1 | inactive
46 | Cc1nc2c(-c3ccccc3)c(C)nn2c(N)c1-c1ccccc1 | inconclusive [inhibitor, partial curve]
47 | O=C(CCCNC(=O)/C(=C/c1ccc(Br)cc1)NC(=O)c1ccccc1)OCc1ccccc1 | inconclusive [inhibitor, partial curve]
